Source: the supplement of paper PMC4967469

Legend:
Assay in all cases: Viability of human cancer cell lines after 72 h of drug (GDSC screen)
OSU-03012 = compound: NCC(=O)Nc1ccc(-n2nc(C(F)(F)F)cc2-c2ccc3c(ccc4ccccc43)c2)cc1 [OSU-03012]; conditions: top dose 16 µM; top dose inferred
Procedure: (§1)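 Human cancer cell lines in 384-well plates, medium with 10% serum, drug for 72 h over a 256-fold dose range (nine 2-fold or five 4-fold steps up to the top dose). Adherent lines were fixed and stained with the nucleic acid dye Syto60, suspension lines read with resazurin; signal relative to control wells, capped at 0 and 100%. One two-parameter sigmoid per drug and line, fitted in a mixed model over all curves with the slope shared within a line.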

5-Fluorouracil = compound: O=c1[nH]cc(F)c(=O)[nH]1 [5-Fluorouracil]; conditions: top dose 32 µM; top dose inferred
Procedure: as §1

RDEA119 = compound: COc1cc(F)c(F)c(Nc2ccc(I)cc2F)c1NS(=O)(=O)C1(C[C@H](O)CO)CC1 [RDEA119]; conditions: top dose 5 µM, top dose inferred
Procedure: as §1

AC220 = compound: CC(C)(C)c1cc(NC(=O)Nc2ccc(-c3cn4c(n3)sc3cc(OCCN5CCOCC5)ccc34)cc2)no1 [AC220]; conditions: top dose 1.024 µM; top dose inferred
Procedure: as §1

JNK-9L = compound: Fc1cc(-c2ccnc(Nc3ccc(-n4cnc(N5CCOCC5)n4)cc3)n2)cc(N2CCOCC2)c1 [JNK-9L]; conditions: top dose 5.12 µM; top dose inferred
Procedure: as §1

QS11 = compound: OC[C@H](Cc1ccccc1)Nc1nc(Oc2ccc3c(c2)CCC3)nc2c1ncn2Cc1ccc(-c2ccccc2)cc1 [QS11]; conditions: top dose 10.24 µM
Procedure: as §1

CUDC-101 = compound: C#Cc1cccc(Nc2ncnc3cc(OC)c(OCCCCCCC(=O)NO)cc23)c1 [CUDC-101]; conditions: top dose 5.12 µM; top dose inferred
Procedure: as §1

| Cell Line | AUC (OSU-03012) | IC50 (OSU-03012) | AUC (5-Fluorouracil) | IC50 (5-Fluorouracil) | AUC (RDEA119; screen: GDSC drug entry 1014) | IC50 (RDEA119; screen: GDSC drug entry 1014) | AUC (RDEA119; screen: GDSC drug entry 1526) | IC50 (RDEA119; screen: GDSC drug entry 1526) | AUC (AC220) | IC50 (AC220) | AUC (JNK-9L) | IC50 (JNK-9L) | AUC (QS11) | IC50 (QS11) | AUC (CUDC-101) | IC50 (CUDC-101) |
| --- | --- | --- | --- | --- | --- | --- | --- | --- | --- | --- | --- | --- | --- | --- | --- | --- |
| KP-2 (pancreas, adherent) | 0.644 | 2.59 µM | 0.974 | > 32 µM | 0.436 | 0.206 µM | 0.618 | 0.679 µM | 0.986 | > 1020 nM | 0.685 | 1100 nM | 0.986 | > 10.2 µM | 0.665 | 962 nM |
| LCLC-97TM1 (large cell lung carcinoma, adherent) | 0.646 | 2.64 µM | 0.529 | 2.42 µM | 0.496 | 0.304 µM | 0.775 | 2.18 µM | 0.979 | > 1020 nM | 0.409 | 176 nM | 0.823 | 6.79 µM | 0.548 | 439 nM |
| BL-41 (Burkitt lymphoma, suspension) | 0.525 | 1.15 µM | 0.79 | 10.7 µM | 0.994 | > 5 µM | 0.983 | > 5 µM | 0.97 | > 1020 nM | 0.48 | 287 nM | 0.799 | 3.63 µM | 0.149 | 39.8 nM |
| ECC10 (stomach, suspension) | 0.681 | 3.29 µM | 0.872 | > 32 µM | 0.769 | 1.97 µM | 0.728 | 1.44 µM | 0.97 | > 1020 nM | 0.554 | 454 nM | 0.903 | > 10.2 µM | 0.7 | 1200 nM |
| COLO-824 (breast, adherent) | 0.758 | 5.65 µM | 0.825 | 19.7 µM | 0.839 | 3.5 µM | 0.987 | > 5 µM | 0.986 | > 1020 nM | 0.603 | 615 nM | 0.905 | > 10.2 µM | 0.623 | 702 nM |
| KM-H2 (Hodgkin lymphoma, suspension) | 0.85 | 9.4 µM | 0.991 | > 32 µM | 0.993 | > 5 µM | 0.99 | > 5 µM | 0.974 | > 1020 nM | 0.738 |  | 0.991 | > 10.2 µM | 0.983 | > 5120 nM |
| JIMT-1 (breast, adherent) | 0.764 | 6.23 µM | 0.927 | > 32 µM | 0.871 | > 5 µM | 0.839 | 3.81 µM | 0.985 | > 1020 nM | 0.57 | 505 nM | 0.912 | > 10.2 µM | 0.786 | 2400 nM |
| CAL-72 (osteosarcoma, adherent) | 0.869 | > 16 µM | 0.984 | > 32 µM | 0.826 | 3.79 µM | 0.815 | 3.38 µM | 0.984 | > 1020 nM | 0.974 | > 5120 nM | 0.922 | > 10.2 µM | 0.901 | > 5120 nM |

The IC50 comes from the fitted curve, where viability falls to half of the control; where the fit passes the top or lowest dose, that dose stands as a limit. The AUC spans the tested range (256-fold, ending at the top dose) of the same fit: 1 means no effect, lower means more sensitive. For some of these results: Where the top dose is marked as inferred, it was derived from the fitted curves, not read from the paper. For some of these results: Drugs with an entry number were screened twice under separate entries, and the two screens often disagree.
